This is an account of results in publication PMC4336329 (PLoS ONE, 2015).

Structures are written as SMILES. Screen size: about 310,000 compounds; about 2,200 (0.71%) showed an effect of 50% or more. The effect is printed as a negative number. The list shows a part of the results.

The target in the assay is human ether-à-go-go-related gene (hERG) potassium channel (human, UniProt Q12809). The experiment in a line: primary screen, population patch clamp on CHO cells stably expressing hERG.
Sequence of human ether-à-go-go-related gene (hERG) potassium channel (Q12809 whole entry, looked up): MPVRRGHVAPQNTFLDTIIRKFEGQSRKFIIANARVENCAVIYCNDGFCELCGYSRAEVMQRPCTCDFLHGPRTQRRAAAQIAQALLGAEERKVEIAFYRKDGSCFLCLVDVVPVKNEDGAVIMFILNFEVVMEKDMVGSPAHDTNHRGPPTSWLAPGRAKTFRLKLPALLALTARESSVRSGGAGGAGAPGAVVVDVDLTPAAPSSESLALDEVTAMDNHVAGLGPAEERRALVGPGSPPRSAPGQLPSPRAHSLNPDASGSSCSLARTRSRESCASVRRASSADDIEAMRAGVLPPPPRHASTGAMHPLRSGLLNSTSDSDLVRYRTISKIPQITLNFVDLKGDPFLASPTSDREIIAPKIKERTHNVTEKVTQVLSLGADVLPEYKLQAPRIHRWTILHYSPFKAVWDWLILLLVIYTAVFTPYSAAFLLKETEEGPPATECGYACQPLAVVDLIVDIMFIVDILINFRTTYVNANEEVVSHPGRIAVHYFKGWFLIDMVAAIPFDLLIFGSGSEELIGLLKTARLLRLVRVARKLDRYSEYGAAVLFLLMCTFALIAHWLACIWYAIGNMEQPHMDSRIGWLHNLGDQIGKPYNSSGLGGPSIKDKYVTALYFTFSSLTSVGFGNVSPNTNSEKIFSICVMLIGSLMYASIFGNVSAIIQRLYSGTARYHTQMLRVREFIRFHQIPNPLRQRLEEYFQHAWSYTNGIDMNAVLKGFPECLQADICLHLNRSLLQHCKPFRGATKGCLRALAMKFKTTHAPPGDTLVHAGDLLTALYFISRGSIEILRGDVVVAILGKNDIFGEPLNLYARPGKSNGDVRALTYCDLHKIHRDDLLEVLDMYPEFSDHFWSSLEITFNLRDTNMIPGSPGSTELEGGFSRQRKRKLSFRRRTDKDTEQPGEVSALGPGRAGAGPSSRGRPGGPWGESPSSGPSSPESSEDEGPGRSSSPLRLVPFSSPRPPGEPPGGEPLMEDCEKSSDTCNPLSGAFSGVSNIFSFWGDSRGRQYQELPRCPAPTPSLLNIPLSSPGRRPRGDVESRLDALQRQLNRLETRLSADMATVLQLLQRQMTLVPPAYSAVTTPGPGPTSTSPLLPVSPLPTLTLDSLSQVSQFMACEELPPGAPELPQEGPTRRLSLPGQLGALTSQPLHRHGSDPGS
As for `O=C(N/N=C\c1ccncc1)c1ccc(Cl)s1`, the “hERG current change (%, negative = inhibition) at 1uM” value stood at 10.5%.
The result for `COc1cccc(CNC(=O)COC(=O)c2ccc(C(=O)c3ccccc3)cc2)c1` reads 4.05%; that for `Cc1cccc(C)c1NC(=O)CN(C)C(=O)CSCc1c(C)noc1C`, 9.03%; that for `COc1ccc(S(=O)(=O)NCC2CCCN(C(=O)c3sccc3C)C2)cc1` (centres unmarked), 8.55%.
`C[C@H]1CCC[C@]2(O[C@H](CCO)C[C@H](O)[C@H]2O)O1`: the “hERG current change (%, negative = inhibition) at 1uM” value is 15.4%.
For `CCc1ccc(N(C(=O)CNC(=O)c2ccco2)C(C(=O)NCC2CCCO2)c2ccccc2)cc1` (centres unmarked), the “hERG current change (%, negative = inhibition) at 1uM” value came to 3.34%.
The value for `COc1ccc(OCc2cc(C(=O)NC(C)Cc3ccccn3)no2)c(Cl)c1` (centres unmarked) was 9.87%; that for `O=C(O)CCN(CCC(=O)O)c1nnc(SCc2ccccc2)s1` was 11.7%.
The result for `CCN(CC(=O)Nc1ccc(NC(C)=O)cc1)C(=O)/C=C/c1ccc(S(=O)(=O)N2CCCCCC2)cc1` reads 9.94%; that for `COc1ccc(NC(=O)COC(=O)C2C3CC4OC(=O)C2C4C3)cc1` (centres unmarked), 17.3%.
The result for `CC(=O)c1cc2c(cc1NC(=O)CCn1cnnn1)OCO2` reads 8.44%; that for `CCC(=O)N1c2ccc(S(=O)(=O)N3CCN(c4ccccc4Cl)CC3)cc2CC1C` (centres unmarked), 15.3%; that for `CCOC(=O)N1CCN(C(=O)c2cc3n(n2)C(C(F)(F)F)CC(c2ccc4c(c2)OCO4)N3)CC1` (centres unmarked), 12.4%.
As to `Cc1ccc(C2NC(=S)NC3=C2C(=O)CCC3)cc1` (centres unmarked), the “hERG current change (%, negative = inhibition) at 1uM” value came to 11.9%.
For the compound `Cc1cc(C(=O)N/N=C/c2ccccn2)n[nH]1`, the “hERG current change (%, negative = inhibition) at 1uM” value came to 15.6%.
For `COc1ccc(-c2nc(C#N)c(N3CCN(c4cccc(Cl)c4)CC3)o2)cc1OC`, the “hERG current change (%, negative = inhibition) at 1uM” value is listed as 14.2%.
The value for `CC(C)CN1CCC(=O)N(CCN=[N+]=[N-])CC1` was 6.67%; that for `Cc1nc(Cl)sc1C(=O)Nc1ccc(Cl)cc1` was 2.35%.
Regarding `O=C(O)C1=C[C@@H](c2ccc(Br)cc2)C[C@@H](OCCCCO)O1`, the “hERG current change (%, negative = inhibition) at 1uM” value worked out at 11%.
For `OC1(Cc2ccccc2)CCNCC1`, the “hERG current change (%, negative = inhibition) at 1uM” value was determined as 15.6%.
The value for `COc1ccc(NC(=O)CS(=O)CC(=O)Nc2ccc(-n3cnnn3)c(C)c2)cc1` (centres unmarked) was 11%; that for `O=C(Nc1ccccc1)Nc1nnc(/C=C/c2ccccc2Cl)s1` was 16.8%.
Take `O=c1ccc2ccccc2n1Cc1cccc(F)c1`: the “hERG current change (%, negative = inhibition) at 1uM” value turned out to be 12.6%.
`CCCCC1=CC2=CC(=O)C(C)(OC(=O)CC)C(=O)C2=CN1C1CCCCC1` (centres unmarked): the “hERG current change (%, negative = inhibition) at 1uM” value is recorded as 4.1%.
The result for `C/C(=N\NS(=O)(=O)c1ccc([N+](=O)[O-])cc1)c1cccs1` reads 12%.
For the compound `CCOC(=O)C1CCCN(C(=O)c2cccc(S(=O)(=O)N3CCCC3)c2)C1` (centres unmarked), the “hERG current change (%, negative = inhibition) at 1uM” value was 15.4%.
Turning to `COc1ccc(CCNC(=O)COC(=O)c2cc(S(=O)(=O)N3CCCC3)ccc2O)cc1`, the “hERG current change (%, negative = inhibition) at 1uM” value was 1.5%.
The value for `CCCCCc1ccc(OCCCC[n+]2ccccc2)c(CCCCC)c1.[Cl-]` was -8.63%; that for `O=C(Oc1cc(=O)oc2ccccc12)c1ccccc1` was 10.2%.
As to `Cc1n(CC(O)COCc2ccccc2)c2ccccc2[n+]1C.[I-]` (centres unmarked), the “hERG current change (%, negative = inhibition) at 1uM” value was determined as 19.4%.
The value for `O=C(OCC(=O)N1CCN(C(=O)c2ccco2)CC1)c1ccccc1OCc1ccc(Cl)cc1` was -6.07%.
Turning to `CN(C(=O)c1ccccc1C(=O)OCC(=O)NC(=O)NC(C)(C)C)C1CCCCC1`, the “hERG current change (%, negative = inhibition) at 1uM” value is on record as 6.73%.
The value for `Cc1ccc(NC(=O)CSc2nnc(-c3cnccn3)n2-c2ccccc2)cc1` was 18.1%; that for `Cl.O=C(CCN1Cc2ccccc2C1)c1ccc2c(c1)OCCO2` was 7.23%.
The result for `CSCCC(NC(=O)c1cccc([N+](=O)[O-])c1)C(=O)OCC(=O)N1CCCC1=O` (centres unmarked) reads 14%.
As for `COc1ccc(OCC(=O)N/N=c2\oc3c(OC)cccc3cc2C(N)=O)cc1`, the “hERG current change (%, negative = inhibition) at 1uM” value worked out at 5.79%.
Take `CCC(=O)NCCc1cc2ccc(C)c(C)c2[nH]c1=O`: the “hERG current change (%, negative = inhibition) at 1uM” value stood at 7.75%.
The result for `O=C1NC2(NN1c1ccccc1)C1CC3CC(C1)CC2C3` (centres unmarked) reads 2.73%; that for `Cc1cccc(NP(=O)(Oc2ccccc2F)Oc2ccccc2F)c1C`, 11.7%; that for `Cc1nnc(SCC(=O)Nc2nonc2C)s1`, 7.23%.
The result for `COCCOC(=O)c1c(C)oc2ccc(NS(=O)(=O)c3ccccc3)cc12` reads 7.69%; that for `Cc1ccccc1N1CN(Cc2ccco2)CNC1=S`, -14.5%; that for `COc1ccc2nc(SCC(=O)NCc3ccc(F)cc3)[nH]c2c1`, 7.55%.
The result for `CCN(CCCNC(=O)CCC(=O)N1CCOc2ccccc21)Cc1ccccc1` reads -17.4%.
